The campaign covered roughly 55,000 compounds. About 340 (0.62%) were called active. The inconclusive results got no clear call from the source; some entries with a clear call stand among them for comparison. Calls follow the shape of the dose curve; as a rule, active = well fitted cell-killing curve with a large enough effect; inconclusive = small, poorly fitted or top-dose-only effect; inactive = no such curve, though single readings can be large or run the other way. Where the call is inconclusive, the potency comes from a doubtful curve fit.
assay: qHTS Screen for Compounds that Selectively Target Cancer Cells with p53 Mutations: Cytotoxicity of p53 Null Cells at the Permissive Temperature; settings: H1299-neo p53 null cells, ATP luminescence, 24 h, 32C; series mostly up to 46.1 µM; also: nearly all actives have a fitted effect of over 55% in size
Outline: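 Cells lacking p53 (H1299-neo) are plated at 600 per well and allowed to settle overnight at 37C. Test compounds (up to 46 uM) are added and held 24 hours at 32C, then ATP is quantified by luminescence.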
Potency is read from the fitted curve at half-maximal effect; tags tell the direction and shape of the fitted curve.

SMILES | Potency
CCOc1ccc(C2C=C(c3cccc(OC)c3)Nc3nnnn32)cc1 (centres undefined) | inactive
COc1cccc(CNC(=O)C(C)n2ncn3cccc3c2=O)c1OC (centres undefined) | inconclusive: 25.1 µM [cytotoxic, partial curve]
O=C(Nc1ccccc1)Nc1ccc2snnc2c1 | inconclusive: 15.8 µM [cytotoxic, single point]
Cc1nn2c(=O)cc(COC(=O)c3cccc(NC(=O)COc4ccccc4Cl)c3)nc2s1 | active: 12.6 µM
CCC(=O)N1CCc2cc(S(=O)(=O)NC(CC(C)C)C(=O)NCCc3cccc(C)c3)ccc21 (centres undefined) | inconclusive: 35.5 µM [cytotoxic, single point]
O=C(COc1ccc(Br)cc1Cl)Nc1ncn[nH]1 | inconclusive: 2.24 µM [cytotoxic, full curve]
CC(=O)c1ccc(NC(=O)C2Cc3ccccc3N2C(=O)c2ccccc2)cc1 (centres undefined) | inactive
Cc1cccc(CCNc2ncnc3onc(-c4ccc(Cl)cc4)c23)c1 | inactive
Cc1oc(-c2cccc(Cl)c2)nc1CS(=O)(=O)CC(=O)NCc1ccccc1Cl | inactive
CCC(C)Cn1c(/C=C/c2ccccc2)nc2ccccc21 (centres undefined) | inconclusive: 15.8 µM [cytotoxic, single point]
COc1ccccc1OCCCCn1c(C2CC(=O)N(c3ccccc3Cl)C2)nc2ccccc21 (centres undefined) | inconclusive: 31.6 µM [cytotoxic, single point]
Cc1ccc(NC(=O)/C(C#N)=C/c2ccccc2Cl)cc1C | inconclusive: 31.6 µM [cytotoxic, single point]
Cc1ccccc1C(=O)Nc1ccccc1OCc1cc(=O)n2ccccc2n1 | inactive
Cc1cccc(N2CCN(C(=O)Cn3ncc4c3-c3cc(C)ccc3OC4)CC2C)c1 (centres undefined) | inconclusive: 10 µM [cytotoxic, partial curve, poor fit]
CCOc1ccc(-n2nc(CO)c(C(=O)NCc3ccccn3)n2)cc1 | inconclusive: 11.2 µM [cytotoxic, partial curve]
CCc1ccc(NC(=O)CSc2ccc3nc(-c4ccc(OC)cc4)cn3n2)cc1 | inconclusive: 12.6 µM [cytotoxic, partial curve]
O=C1c2ccccc2C(=O)C1c1ccnc2ccccc12 | inconclusive: 4.47 µM [cytotoxic, partial curve]
CCOc1ccc(CNCc2c(C(=O)O)c(C)n(Cc3ccc(C)cc3)c2C)cc1 | inactive
CC(C)c1ccc(-c2noc(SCC(=O)N3CCCCC3C)n2)cc1 (centres undefined) | inconclusive: 12.6 µM [cytotoxic, partial curve]
Cc1ccc(-n2ncc3c(N(C)C)ncnc32)cc1Cl | inconclusive: 5.01 µM [cytotoxic, full curve]
CCOC(=O)c1c(Nc2ccc(O)cc2)nnc(-c2ccccc2)c1-c1ccccc1 | inactive
COc1ccc(-c2cc(C(=O)Oc3ccc(C)cc3)c3ccccc3n2)cc1 | inconclusive: 10 µM [cytotoxic, partial curve, poor fit]
O=C(Nc1ccc(C(=O)N2CCCCC2)cc1)c1nsc2ccccc12 | active: 3.98 µM

SMILES | Potency
Cc1cc(C)cc(NC(=O)CSc2nc3c([nH]c4ccccc43)c(=O)n2-c2ccc(F)cc2)c1 | inconclusive: 3.16 µM [cytotoxic, single point]
N#C/C(=C\c1ccc(-c2ccc(Cl)c(C(=O)O)c2)o1)c1nc2ccccc2[nH]1 | inconclusive: 31.6 µM [cytotoxic, single point]
CCOc1ccccc1NC(=O)c1c(NC(=O)c2ccncc2)sc2c1CCC(C(C)(C)C)C2 (centres undefined) | inactive
COc1cccc(CNC(=O)Cn2c(SCC(=O)Nc3ccc(C)c(C)c3)nc3ccccc32)c1 | inconclusive: 17.8 µM [cytotoxic, partial curve, poor fit]
O=C(NCCCN1CCN(c2ccccc2F)CC1)C1COc2ccccc2C1 (centres undefined) | inactive
O=C(NCc1ccccc1Cl)c1ccc(NC(=O)c2nsc3ccccc23)cc1 | inconclusive: 10 µM [cytotoxic, partial curve]
Cn1cc(-c2cc3n(n2)CCC(=O)N3CCCC(=O)Nc2ccccc2Cl)c2ccccc21 | inconclusive: 22.4 µM [cytotoxic, single point]
CC(C(=O)NCc1cccc(Br)c1)n1ncn2cccc2c1=O (centres undefined) | inconclusive: 31.6 µM [cytotoxic, single point]
Cc1ccc2c(CC(=O)Nc3nnc(C(C)C)s3)coc2c1C | inactive
COc1cccc(CNC(=O)Nc2cn(CC(C)C)c(=O)c3ccccc23)c1 | inactive
CC(C)c1ccc(-c2noc(SCC(=O)N3CCN(c4ccccc4F)CC3)n2)cc1 | inconclusive: 10 µM [cytotoxic, partial curve]
Cc1nc(-c2cccc(F)c2)sc1CCNC(=O)Cc1ccc(F)cc1 | inactive
COc1cccc(CNC(=O)CN(c2ccc(C)cc2)S(=O)(=O)N(C)C)c1OC | inconclusive: 5.62 µM [cytotoxic, single point]
COc1ccc(-c2csc3ncnc(Nc4ccc(OC)cc4OC)c23)cc1 | inactive
COc1ccc(NC(=O)CCCS(=O)(=O)c2nc(-c3ccccc3OC)cc(C(F)(F)F)n2)c(OC)c1 | inconclusive: 31.6 µM [cytotoxic, single point]
COc1ccc(NC(=O)Nc2cccc(-c3noc(C)n3)c2)cc1 | inactive
CSc1ccc(/C=N/NC(=O)c2ccc(O)cc2)cc1 | inconclusive: 12.6 µM [cytotoxic, single point]
COc1ccc(C)cc1NS(=O)(=O)c1ccc2c(c1)CCCN2C(C)=O | inconclusive: 3.55 µM [cytotoxic, single point]
Cc1nnc(N2CCCC(C(=O)Nc3cc(F)ccc3F)C2)c2nn(-c3ccccc3)c(C)c12 (centres undefined) | inconclusive: 22.4 µM [cytotoxic, single point]
Cc1ccccc1CN1C(=O)C(O)(c2c[nH]c3ccccc23)c2cc(Cl)ccc21 (centres undefined) | inconclusive: 31.6 µM [cytotoxic, single point]
COc1ccc(-c2nnc(Nc3nc4c(OC)cccc4s3)o2)c(OC)c1 | inconclusive: 12.6 µM [cytotoxic, single point]
COc1cccc(NC(=O)c2csc3c2CCCCC3)c1 | inconclusive: 10 µM [cytotoxic, partial curve]
CCc1ccc(NC(=O)N2CCN(c3nnc(C)c4c(C)n(-c5ccc(Cl)cc5)nc34)CC2)cc1 | inconclusive: 31.6 µM [cytotoxic, single point]

SMILES | Potency
CCc1nonc1NC(=O)c1oc2ccc(C)cc2c1C | inactive
CC(C)C(=O)NCC1(N(C)C)CCCCC1 | inactive
Fc1ccc(-n2ncc3c(N4CCCCCC4)ncnc32)cc1 | inconclusive: 2.51 µM [cytotoxic, full curve]
CCOc1ccc(S(=O)(=O)Nc2ccc3oc(C)c(C(=O)OC(C)C)c3c2)cc1 | inactive
Cc1ccc(O)c(NC(=O)c2noc3c2CCCC3)c1 | inconclusive: 12.6 µM [cytotoxic, partial curve]
COc1cccc(-n2cc(C(=O)OCc3ccc(F)c(F)c3)c3ccccc3c2=O)c1 | inconclusive: 5.62 µM [cytotoxic, single point]
CCCN(CCC)CC(O)Cn1cc(/C=C/C(=O)c2ccc(C)cc2)c2ccccc21 (centres undefined) | inconclusive: 25.1 µM [cytotoxic, single point]
NC(=O)C1CCN(C(=O)c2cccc(NC(=O)c3nsc4ccccc34)c2)CC1 | inconclusive: 12.6 µM [cytotoxic, partial curve]
Brc1ccc(-c2nc3ccccn3c2Nc2ccc3c(c2)OCCO3)o1 | inconclusive: 12.6 µM [cytotoxic, partial curve]
COC(=O)c1c(SC)nc2ccccc2c1OCc1ccc(Cl)cc1 | inactive
COc1cc(CNC(=O)c2ccc3nc(CCc4ccccc4)oc3c2)cc(OC)c1OC | inactive
COc1ccccc1CCNC(=O)C1CCN(c2nnc(-n3cccc3CNc3ccc(C)cc3)s2)CC1 | inconclusive: 0.0141 µM [cytotoxic, full curve, poor fit]
Cc1cn2c(=O)cc(COC(=O)c3cccc(NC(=O)c4ccc(C(C)(C)C)cc4)c3)nc2s1 | active: 2.51 µM
O=C(Nc1nc(-c2ccccn2)cs1)C1COc2ccccc2O1 (centres undefined) | inconclusive: 0.631 µM [cytotoxic, full curve, poor fit]
CCC(=O)N1CCc2cc(S(=O)(=O)CCC(=O)Nc3ccc(OC(F)(F)F)cc3)ccc21 | inactive
O=C(NCc1cccs1)c1ccc(Cn2c(SCc3ccccc3)nc3cccnc32)cc1 | inconclusive: 11.2 µM [cytotoxic, single point]
CC1CCC(Nc2nc3c(-c4ccc(Cl)cc4)nnn3c3ccccc23)CC1 (centres undefined) | inconclusive: 4.47 µM [cytotoxic, partial curve]
CC(=O)c1ccc(NC(=O)CN2C(=O)CCc3ccccc32)cc1 | inconclusive: 20 µM [cytotoxic, single point]
Cc1ccc(C)c(NC(=O)CS(=O)(=O)c2cn(C)c3ccccc23)c1 | inactive
COc1ccc(OC)c(CNC(=O)CN(c2ccc(C)cc2)S(=O)(=O)N(C)C)c1 | inconclusive: 2.82 µM [cytotoxic, partial curve]
CCOC(=O)c1ccc(-c2ccc(/C=C(\C#N)c3nc4ccc(C)cc4[nH]3)o2)cc1 | inconclusive: 31.6 µM [cytotoxic, single point]
Cc1ccc2[nH]cc(C(c3ccccc3)c3ccc(C)s3)c2c1 (centres undefined) | active: 11.2 µM
CC(CNC(=O)c1ccc2c(c1)nc1n2CCCCC1)c1ccccc1 (centres undefined) | inconclusive: 10 µM [cytotoxic, partial curve]
